Laboratory results: article PMC4336329 (PLoS ONE, 2015)
Hit rate of the full screen: of about 310,000 compounds, about 2,200 (0.71%) showed an effect of 50% or more. The effect is printed as a negative number. This is one part of the list.

Target: human ether-à-go-go-related gene (hERG) potassium channel (human, UniProt Q12809)
Experiment: primary screen, population patch clamp on CHO cells stably expressing hERG

Sequence of human ether-à-go-go-related gene (hERG) potassium channel (Q12809 whole entry, looked up): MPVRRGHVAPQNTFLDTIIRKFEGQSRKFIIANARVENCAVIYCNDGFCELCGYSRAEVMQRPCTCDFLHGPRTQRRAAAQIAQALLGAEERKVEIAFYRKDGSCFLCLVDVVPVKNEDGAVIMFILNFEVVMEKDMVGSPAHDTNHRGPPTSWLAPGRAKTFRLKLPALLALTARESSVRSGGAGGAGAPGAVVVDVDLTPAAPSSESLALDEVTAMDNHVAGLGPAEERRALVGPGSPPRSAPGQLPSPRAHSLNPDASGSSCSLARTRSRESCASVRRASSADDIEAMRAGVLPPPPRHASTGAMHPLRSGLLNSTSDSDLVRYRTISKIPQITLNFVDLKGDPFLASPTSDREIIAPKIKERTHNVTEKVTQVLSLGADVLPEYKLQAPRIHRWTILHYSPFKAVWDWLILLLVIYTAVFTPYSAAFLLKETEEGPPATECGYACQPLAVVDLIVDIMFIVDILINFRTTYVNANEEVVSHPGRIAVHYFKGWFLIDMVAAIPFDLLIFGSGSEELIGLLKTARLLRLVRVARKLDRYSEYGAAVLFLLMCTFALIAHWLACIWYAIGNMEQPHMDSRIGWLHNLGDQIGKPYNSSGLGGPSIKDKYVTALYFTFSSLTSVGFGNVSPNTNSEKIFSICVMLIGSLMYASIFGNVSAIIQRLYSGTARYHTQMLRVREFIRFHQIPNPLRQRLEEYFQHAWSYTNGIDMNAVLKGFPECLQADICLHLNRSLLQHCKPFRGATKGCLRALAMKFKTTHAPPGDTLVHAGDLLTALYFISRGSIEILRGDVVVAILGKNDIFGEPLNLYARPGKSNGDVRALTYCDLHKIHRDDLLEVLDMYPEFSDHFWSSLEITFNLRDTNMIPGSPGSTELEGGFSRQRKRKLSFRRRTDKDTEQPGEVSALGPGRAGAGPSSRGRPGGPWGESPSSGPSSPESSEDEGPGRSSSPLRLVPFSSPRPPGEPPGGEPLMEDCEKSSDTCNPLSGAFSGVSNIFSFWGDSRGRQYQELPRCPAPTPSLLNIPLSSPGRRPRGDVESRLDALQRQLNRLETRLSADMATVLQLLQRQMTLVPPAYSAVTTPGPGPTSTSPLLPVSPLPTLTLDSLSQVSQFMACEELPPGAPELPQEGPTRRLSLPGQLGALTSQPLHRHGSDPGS

Row | Compound | hERG current change (%, negative = inhibition) at 1uM [%]
1 | N#CC1CC(c2ccc([N+](=O)[O-])cc2)=NN1c1ccc([N+](=O)[O-])cc1 (stereo not shown) | 5.01
2 | COC(=O)Oc1ccc(/C=C/C(=O)OC(C)C)cc1OC(=O)OC | 6.62
3 | Cc1cccc(-n2nc3c([n+]2[O-])CCc2nonc2-3)c1C | 13.8
4 | CNC(=S)SCCOc1ccc(C)cc1 | 16
5 | CN(CC(CC(=O)Nc1nncs1)c1ccccc1)S(=O)(=O)c1ccc(Br)cc1 (stereo not shown) | -32.6
6 | CC(OC(=O)COc1ccccc1Cc1ccccc1)C(=O)N(C)c1ccccc1 (stereo not shown) | 8.06
7 | Fc1ccc(CNC2CCN(Cc3ccccc3)CC2)cc1 | -9.44
8 | CCCC(=O)N(Cc1cc2cc(C)ccc2[nH]c1=O)c1ccccc1OC | 6.79
9 | CCN(CC)c1ccc(C2C3CCCCC3(O)CCN2C(=O)c2cccs2)cc1 (stereo not shown) | 6.98
10 | Cc1nnsc1SCCNC(=O)c1ccc(F)cc1 | 7.97
11 | O=C(Nc1ccc(Cl)cn1)c1ccc(COCC(F)(F)C(F)F)o1 | -7.64
12 | CC(=O)Nc1ccnn1C1CCN(C(=O)c2cccc(C)c2C)CC1 | 14.1
13 | Cc1ccc(C(=O)CC(=O)c2cccc(F)c2)c(O)c1 | 1.53
14 | COc1cc(S(=O)(=O)N2CCCC2)c(C)cc1C | 16.5
15 | O=S(=O)(c1ccc(Br)s1)N1CCN(Cc2ccc3c(c2)OCO3)CC1 | 14.6
16 | COC(=O)c1sc2nc(C)c([N+](=O)[O-])c(C)c2c1N | 6.8
17 | CN(C(=O)c1ccc(Br)cc1)C1CCS(=O)(=O)C1 (stereo not shown) | 10.2
18 | COc1ccccc1NC(=O)c1cc2c(CO)cnc(C)c2oc1=Nc1ccc(OC)c(OC)c1 | 10.7
19 | CCN1CCN(c2ccccc2NC(=O)C(C)Oc2ccc(C(C)=O)cc2)CC1 (stereo not shown) | -17.5
20 | COC(=O)COc1coc(CN2CCN(c3cccc(Cl)c3)CC2)cc1=O | 9.34
21 | Br.COCC(C)NCc1cccc(C)c1 (stereo not shown) | 14.9
22 | CCOc1ccc(-c2nnc3n2N=C(c2ccc(OC)cc2)CS3)cc1 | 10.8
23 | c1ccc(-c2cn(C[C@H]3CC[C@@H]([C@@H]4CC[C@H](Cn5cc(-c6ccccc6)nn5)O4)O3)nn2)cc1 | -3.6
24 | COc1ccc(OC)c(NC(=O)C(=O)NNC(=O)C23CC4CC(CC(C4)C2)C3)c1 | 13.5
25 | COc1cc(NC(=O)c2cccc(Cl)c2)ccc1NC(=O)c1cccs1 | 5.97
